{
  "source": "PubChem BioAssay AID743255",
  "about": "(National Center for Advancing Translational Sciences (NCATS), 2014)",
  "note": "Screen size: about 390,000 compounds; about 910 (0.23%) were called active. Not shown: some 5% with an inconclusive outcome. The call rests on the fitted dose curve; in most records, active means well fitted inhibition curve with a large enough effect; inconclusive means small, poorly fitted or top-dose-only effect; inactive means no such curve, though single readings can be large or run the other way. The entries are a selection whose mix differs from that of the whole data set. On the % scale 0 is the no-effect control and ±100 the full control effect; potency means the concentration at half of the fitted maximal effect.",
  "data": [
    {"molecular_target": "Ubiquitin carboxyl-terminal hydrolase 1 (Homo sapiens) (UniProt O94782)", "sequence (O94782 whole entry, looked up)": "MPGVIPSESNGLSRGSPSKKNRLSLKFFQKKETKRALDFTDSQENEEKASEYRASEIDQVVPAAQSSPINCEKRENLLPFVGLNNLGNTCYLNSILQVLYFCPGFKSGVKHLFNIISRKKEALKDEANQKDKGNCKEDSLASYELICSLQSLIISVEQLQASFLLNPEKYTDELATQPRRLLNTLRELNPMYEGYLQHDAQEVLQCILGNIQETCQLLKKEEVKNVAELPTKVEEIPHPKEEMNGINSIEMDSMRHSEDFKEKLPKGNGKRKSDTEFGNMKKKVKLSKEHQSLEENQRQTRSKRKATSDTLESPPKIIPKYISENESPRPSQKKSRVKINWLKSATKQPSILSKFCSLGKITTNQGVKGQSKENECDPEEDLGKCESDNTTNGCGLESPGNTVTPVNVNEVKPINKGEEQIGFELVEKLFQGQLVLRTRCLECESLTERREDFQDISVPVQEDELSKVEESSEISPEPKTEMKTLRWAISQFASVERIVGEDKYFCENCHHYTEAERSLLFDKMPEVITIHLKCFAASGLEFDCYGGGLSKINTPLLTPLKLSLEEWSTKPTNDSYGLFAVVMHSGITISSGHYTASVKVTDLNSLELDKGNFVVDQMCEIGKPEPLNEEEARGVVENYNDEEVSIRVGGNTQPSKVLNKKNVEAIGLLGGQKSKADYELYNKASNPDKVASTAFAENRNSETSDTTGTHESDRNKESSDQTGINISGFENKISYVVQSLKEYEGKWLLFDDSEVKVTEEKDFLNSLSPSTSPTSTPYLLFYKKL", "test": "Inhibitors of USP1/UAF1: Primary Screen; further: nearly all actives have a fitted effect of over 60% in size", "settings": "recombinant USP1/UAF1, Ub-Rhodamine cleavage fluorescence; activity change, negative = inhibition: at 57.1 µM (top of the series)", "summary_of_the_method": "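In this screen, compounds sit with the deubiquitinase complex (1nM) for 15 min at room temperature before Ub-Rho is added at 150nM final. Fluorescence rise is then followed for 6 reads every 60 seconds.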", "values": [
      {"compound": "C(C#CCCCCCCCCC[n+]1ccccc1)#CCCCCCCCCC[n+]1ccccc1", "activity change, negative = inhibition": "inactive: 1.74%"},
      {"compound": "CCC(Sc1nc2ccncc2[nH]1)C(=O)Nc1cc(Cl)ccc1C", "note": "(stereo unspecified)", "activity change, negative = inhibition": "inactive: -13.3%"},
      {"compound": "Cc1ccc([C@H]2C[C@@H](n3cc(-c4ccc(F)cc4)nn3)[C@H](O)CN2C(=O)c2cccs2)cc1", "activity change, negative = inhibition": "inactive: -26.6%"},
      {"compound": "OCC[C@@H]1C[C@@H](O)[C@H](O)[C@@]2(CCCc3ccccc3O2)O1", "activity change, negative = inhibition": "inactive: -16.9%"},
      {"compound": "COC(=O)CNC(=O)C1CCN(S(=O)(=O)c2cccc3nsnc23)CC1", "activity change, negative = inhibition": "inactive: -16.3%"},
      {"compound": "CCc1ccc(NC(=O)C2CCCN2S(=O)(=O)c2ccc3c(c2)n(C)c(=O)c(=O)n3C)cc1", "note": "(stereo unspecified)", "Potency": "inactive"},
      {"compound": "CCOC(=O)N1CCN(c2cc(NCCC(=O)O)c3c4c(onc24)-c2ccccc2C3=O)CC1", "Potency": "active: 14.1 µM"},
      {"compound": "COc1ccc(NC(=O)Cn2nnc(C(=O)NCc3ccc4c(c3)OCO4)c2N)cc1", "activity change, negative = inhibition": "inactive: -9.49%"},
      {"compound": "CN1CCc2c(sc(NC(=O)CSc3ccc(F)cc3)c2-c2nc3ccccc3s2)C1", "activity change, negative = inhibition": "inactive: 91.9%"},
      {"compound": "OCC[C@@H]1C[C@@H](O)[C@H](O)[C@]2(CCCc3ccccc3O2)O1", "activity change, negative = inhibition": "inactive: 21.3%"},
      {"compound": "CCOC(=O)c1ccc(NCn2c(=O)oc3ccccc32)cc1", "Potency": "active: 25.1 µM"},
      {"compound": "CCOC(=O)C(C(=O)OCC)c1cc(Br)c2noc3c2c1C(=O)c1ccccc1-3", "activity change, negative = inhibition": "inactive: 43.8%"},
      {"compound": "Cc1ccc(C2c3c(-c4ccccc4O)n[nH]c3C(=O)N2CCc2ccccc2)cc1", "note": "(stereo unspecified)", "activity change, negative = inhibition": "inactive: 31%"},
      {"compound": "CN1CCN(C(=O)C2=C[C@H](c3ccc4c(c3)OCO4)C[C@H](OCc3ccc(CO)cc3)O2)CC1", "activity change, negative = inhibition": "inactive: -10.8%"},
      {"compound": "O=C(NCc1nc2ccccc2[nH]1)C1=C[C@H](C2CCCCC2)C[C@H](OCCCCO)O1", "activity change, negative = inhibition": "inactive: -30.8%"},
      {"compound": "CCOc1ccc(NC(=O)CSc2nccn2Cc2ccco2)cc1", "activity change, negative = inhibition": "inactive: -23%"},
      {"compound": "Cc1cc(C)cc(OCC(=O)NCCc2nc3ccccc3[nH]2)c1", "activity change, negative = inhibition": "inactive: 0.709%"},
      {"compound": "CCO[C@@H]1OC(C(=O)O)=C[C@H](c2ccc3c(c2)OCO3)[C@H]1CCCO", "activity change, negative = inhibition": "inactive: -28.2%"},
      {"compound": "C[C@@H](NC(=O)c1[nH]cnc1C(=O)Nc1cccc(Cl)c1)c1ccccc1", "activity change, negative = inhibition": "inactive: -28.8%"},
      {"compound": "CCOC(=O)[C@@H]1[C@H]2COc3ccc(Br)cc3[C@H]2N2C(=O)N(c3ccc(C)cc3)C(=O)[C@]12C", "activity change, negative = inhibition": "inactive: -12.1%"},
      {"compound": "C[C@@H]1CCC[C@@]2(O[C@H](CCO)C[C@H](O)[C@H]2O)O1", "activity change, negative = inhibition": "inactive: -16%"},
      {"compound": "O=C1Nc2ccccc2C1=Nc1ccc(-c2nnc3n2CCCCC3)cc1", "activity change, negative = inhibition": "inactive: -8.27%"},
      {"compound": "Cc1ccc(N2C(=O)[C@@H]3[C@H](C2=O)C2c4ccccc4C=CN2[C@@H]3C(=O)c2ccco2)cc1", "note": "(stereo partly specified)", "Potency": "active: 15.8 µM"},
      {"compound": "C[C@@H]1CN([C@@H](C)CO)C(=O)c2cc(Br)cnc2O[C@H]1CN(C)C(=O)Nc1ccc2c(c1)OCO2", "activity change, negative = inhibition": "inactive: -16.9%"},
      {"compound": "COc1cc(NC(=O)c2ccccc2)ccc1NC(=O)c1cc2ccccc2o1", "activity change, negative = inhibition": "inactive: -18.6%"},
      {"compound": "C[C@@H]1CN([C@H](C)CO)C(=O)CCCn2nncc2CO[C@@H]1CN(C)C(=O)Nc1cccc2ccccc12", "activity change, negative = inhibition": "inactive: -3.02%"},
      {"compound": "CCc1ccc(-c2nc3ccc(Br)cc3c(C(=O)O)c2C)s1", "activity change, negative = inhibition": "inactive: -13%"},
      {"compound": "Cc1nn(CCCC(=O)NCc2ccccc2)c(=O)c2nn(-c3ccccc3)c(C)c12", "activity change, negative = inhibition": "inactive: -6.43%"},
      {"compound": "CCCN1C(=O)/C(=C/c2ccc(N3CCCC3)c(C)c2)NC1=S", "activity change, negative = inhibition": "inactive: 39.8%"},
      {"compound": "CCOc1cc(/C=C(\\C#N)c2nc(-c3cccs3)c(NC(C)=O)s2)ccc1O", "activity change, negative = inhibition": "inactive: 48.4%"},
      {"compound": "Cc1ccc(S(=O)(=O)/N=C2\\C=C(Nc3cccc(C(=O)O)c3)C(=O)c3ccccc32)c(C)c1", "Potency": "active: 10 µM"},
      {"compound": "C[C@H]1CCC[C@]2(O[C@@H](CCO)C[C@H](O)[C@H]2O)O1", "activity change, negative = inhibition": "inactive: -17.4%"},
      {"compound": "N#C/C(=C/c1ccc(N2CCOCC2)o1)c1ccc(Br)cc1", "activity change, negative = inhibition": "inactive: 107%"},
      {"compound": "O=C(N[C@H]1C/C=C\\C[C@@H](CC(=O)N(CCO)Cc2ccccc2)C(=O)N2CCC[C@H]2COC1=O)OCC1c2ccccc2-c2ccccc21", "activity change, negative = inhibition": "inactive: -16.1%"},
      {"compound": "C[C@@]12CCC[C@H](O1)[C@@H]([C@H](O)c1ccccc1)O2", "activity change, negative = inhibition": "inactive: -11.7%"},
      {"compound": "CC(=O)c1ccc(N2CCN(C(=O)Nc3cccc(F)c3)CC2)cc1", "activity change, negative = inhibition": "inactive: 3.08%"},
      {"compound": "C#CCOCCOCCOCCNc1nc(N2CCOCC2)nc(N2CCN(C(=O)[C@H](Cc3cc4ccccc4[nH]3)n3cc([C@@H](N)C(C)CC)nn3)CC2)n1", "note": "(stereo partly specified)", "Potency": "active: 44.7 µM"},
      {"compound": "CNC[C@H](O)c1ccc(O)c(O)c1", "activity change, negative = inhibition": "inactive: -25.6%"},
      {"compound": "COc1cc(C=c2c3ccccc3n3c2cc(-c2ccccc2)[n+]3C)cc(OC)c1OC", "Potency": "active: 2.24 µM"},
      {"compound": "OCC[C@H]1C[C@@H](O)[C@H](O)[C@]2(OCc3ccccc32)O1", "activity change, negative = inhibition": "inactive: -19.5%"},
      {"compound": "COC(=O)[C@@]12CCCCN1[C@H](c1ccc(-c3cccc(Cl)c3)cc1)[C@H]1C(=O)N(C)C(=O)[C@H]12", "activity change, negative = inhibition": "inactive: -14.9%"},
      {"compound": "COc1cc(NC(=O)c2cc(S(=O)(=O)N3CCc4ccccc43)cn2C)cc(OC)c1OC", "activity change, negative = inhibition": "inactive: -14.2%"},
      {"compound": "CC(=O)Nc1sc(/C(C#N)=C/c2ccc(Cl)c(Cl)c2)nc1-c1ccc(C)cc1", "activity change, negative = inhibition": "inactive: 17.4%"},
      {"compound": "O=S(=O)(Nc1cccc(-c2ccc(N3CCCCCC3)nn2)c1)c1cccc(F)c1", "activity change, negative = inhibition": "inactive: -17.9%"},
      {"compound": "CCOC(=O)/C(=C/c1ccc(N2CCC(c3ccccc3)=N2)cc1)C(C)=O", "Potency": "active: 4.47 µM"},
      {"compound": "COc1ccc(CN2CCN(Cc3cc(=O)oc4cc(C)ccc34)CC2)c(OC)c1OC", "activity change, negative = inhibition": "inactive: -20.8%"},
      {"compound": "CN(C)CCNC(=O)Cn1nc(C(F)F)cc1C1CC1", "activity change, negative = inhibition": "inactive: 27.8%"},
      {"compound": "O=C(CSc1nnc2sc3ccccc3n12)c1ccco1", "activity change, negative = inhibition": "inactive: 35.8%"},
      {"compound": "O=S(=O)(N[C@H]1C[C@@H](NS(=O)(=O)OCC(Cl)(Cl)Cl)C2CCCCC21)OCC(Cl)(Cl)Cl", "note": "(stereo partly specified)", "activity change, negative = inhibition": "inactive: -7.62%"},
      {"compound": "CCOc1cc(CNc2ccc(O)cc2)ccc1OCc1ccc(Cl)cc1Cl", "Potency": "active: 8.91 µM"},
      {"compound": "CC(C)(C)OC(=O)C[C@@H]1C/C=C\\C[C@@H](CC(=O)N[C@@H](CO)Cc2ccccc2)C(=O)NCCOC1=O", "activity change, negative = inhibition": "inactive: -16%"},
      {"compound": "CCCCn1c(NS(=O)(=O)c2ccccc2)c(S(=O)(=O)c2ccc(C)cc2)c2nc3ccccc3nc21", "Potency": "active: 28.2 µM"},
      {"compound": "COc1cccc(S(=O)(=O)N(C)C[C@@H]2OCc3cnnn3CCCC(=O)N([C@@H](C)CO)C[C@H]2C)c1", "activity change, negative = inhibition": "inactive: -19.6%"},
      {"compound": "COC(=O)C1CCN(c2nc3ccccc3nc2C(C#N)C(=O)OCC(C)C)CC1", "note": "(stereo unspecified)", "activity change, negative = inhibition": "inactive: 28.6%"},
      {"compound": "C[C@H]1NC(=O)[C@@]2(C)[C@@H](c3ccccc3)[C@H]3COc4ccccc4[C@H]3N2C1=O", "activity change, negative = inhibition": "inactive: -8.47%"},
      {"compound": "CCOC(=O)[C@@H]1[C@H]2COc3ccccc3[C@H]2N2C(=O)N(c3ccc(Cl)cc3)C(=O)[C@@]12C", "activity change, negative = inhibition": "inactive: -20.2%"}
    ]}
  ]
}
